Data as given in the supplement of paper PMC10320760.
Single values of this set are uncertain.

B1: Ydj1; a variant is named by its letters at X, in order (parent)
chain: MVKETKFYDILGVPVTATDVEIKKAYRKCALKYHPDKNPSEEAAEKFKEASAAYEILSDPEKRDIYDQFGEDGLSGAGGAGGFPGGGFGFGDDIFSQFFGAGGAQRPRGPQRGKDIKHEISASLEELYKGRTAKLALNKQILCKECEGRGGKKGAVKKCTSCNGQGIKFVTRQMGPMIQRFQTECDVCHGTGDIIDPKDRCKSCNGKKVENERKILEVHVEPGMKDGQRIVFKGEADQAPDVIPGDVVFIVSERPHKSFKRDGDDLVYEAEIDLLTAIAGGEFALEHVSGDWLKVGIVPGEVIAPGMRKVIEGKGMPIPKYGGYGNLIIKFTIKFPENHFTSEENLKKLEEILPPRIVPAIPKKATVDECVLADFDPAKYNRTRASRGGANYDSDEEEQGGEGVQCXXX

Variants of: B1
Experiment: enrichment factor, frequency at 37 °C / frequency at 25 °C (thermotolerance selection) (ratio); higher = more growth at 37 °C, higher likelihood of farnesylation
Conditions: with Saccharomyces cerevisiae ydj1Δ (yWS304); selective temperature 37 °C; reference temperature 25 °C
Procedure: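 Pooled library of all 8,000 Ydj1-CXXX C-terminal motif variants (native CASQ replaced by C + three variable residues, one codon per amino acid) expressed from a CEN plasmid in S. cerevisiae ydj1Δ (yWS304). The library was grown in SC-Ura liquid to A600 ~2 (~8 generations) at permissive 25 °C or selective 37 °C. Reads from 8 and 7 replicates were pooled and variants counted by NGS. Enrichment factor = frequency at 37 °C / frequency at 25 °C, with a +1 correction; it reports Ydj1-dependent thermotolerance, used as a read-out of farnesylation by yeast FTase.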

Row | Variant | enrichment factor
1 | RFE | 1.67
2 | SFE | 1.68
3 | TFE | 2.04
4 | VFE | 1.9
5 | WFE | 1.52
6 | YFE | 0.913
7 | AFE | 1.58
8 | DFE | 0.114
9 | EFF | 1.31
10 | FFF | 1.87
11 | GFF | 1.43
12 | HFF | 2.17
13 | KFF | 1.06
14 | LFF | 0.772
15 | MFF | 1.47
16 | NFF | 1.01
17 | CFF | 0.531
18 | PFF | 0.386
19 | QFF | 1.46
20 | RFF | 0.579
21 | SFF | 2.42
22 | TFF | 0.772
23 | WFF | 1.27
24 | YFF | 1.38

Row | Variant | enrichment factor
25 | AFF | 1.16
26 | DFF | 1.1
27 | EFG | 1.28
28 | FFG | 0.894
29 | GFG | 1.97
30 | HFG | 1.87
31 | IFG | 1.24
32 | KFG | 1.38
33 | LFG | 2.06
34 | MFG | 3.19
35 | NFG | 3.11
36 | CFG | 1.45
37 | PFG | 1.28
38 | QFG | 2.57
39 | RFG | 1.99
40 | SFG | 2.98
41 | TFG | 2.17
42 | VFG | 2.9
43 | WFG | 1.35
44 | YFG | 2.2
45 | AFG | 3.97
46 | DFG | 1.14
47 | EFH | 3.32
48 | FFH | 1.87

Row | Variant | enrichment factor
49 | GFH | 2.06
50 | HFH | 2.75
51 | IFH | 2.32
52 | KFH | 1.83
53 | LFH | 2.7
54 | MFH | 5.13
55 | NFH | 4
56 | CFH | 0.886
57 | PFH | 2.13
58 | QFH | 3.76
59 | RFH | 1.97
60 | SFH | 4.48
61 | TFH | 7.72
62 | VFH | 2.08
63 | WFH | 1.75
64 | YFH | 2.32
65 | AFH | 2.7
66 | DFH | 0.378
67 | EFI | 1.57
68 | FFI | 2.24
69 | GFI | 2.11
70 | HFI | 2.9
71 | IFI | 0.434
72 | KFI | 1.54

Row | Variant | enrichment factor
73 | LFI | 1.04
74 | MFI | 0.772
75 | NFI | 0.941
76 | PFI | 0.993
77 | CFI | 1.65
78 | QFI | 1.35
79 | RFI | 1.54
80 | SFI | 0.579
81 | TFI | 1.16
82 | VFI | 1.74
83 | WFI | 1.59
84 | YFI | 2.75
85 | DFI | 1.94
86 | AFI | 1.39
87 | EFK | 1.05
88 | FFK | 0.284
89 | GFK | 0.112
90 | HFK | 0.519
91 | IFK | 1.57
92 | KFK | 0.269
93 | LFK | 1.25
94 | MFK | 0.353
95 | NFK | 1.01
96 | PFK | 0.881

Row | Variant | enrichment factor
97 | CFK | 0.42
98 | QFK | 1.44
99 | RFK | 0.395
100 | SFK | 0.455
101 | TFK | 1.61
102 | VFK | 2.34
103 | WFK | 0.291
104 | YFK | 0.169
105 | DFK | 0.201
106 | AFK | 1.74
107 | EFL | 1.86
108 | FFL | 1.77
109 | GFL | 1.78
110 | HFL | 1.9
111 | IFL | 1.45
112 | KFL | 1.1
113 | LFL | 1.8
114 | MFL | 2.04
115 | NFL | 1.22
116 | PFL | 1.04
117 | CFL | 0.386
118 | QFL | 1.02
119 | RFL | 1.9
120 | SFL | 2.35

Row | Variant | enrichment factor
121 | TFL | 0.811
122 | VFL | 0.827
123 | WFL | 1.54
124 | YFL | 1.54
125 | DFL | 1.16
126 | AFL | 0.827
127 | EFM | 0.842
128 | GFM | 1.1
129 | HFM | 2.32
130 | IFM | 2.9
131 | KFM | 0.681
132 | LFM | 1.74
133 | MFM | 0.737
134 | NFM | 1.09
135 | PFM | 0.822
136 | CFM | 0.338
137 | QFM | 1.43
138 | RFM | 1.42
139 | SFM | 0.526
140 | TFM | 1.16
141 | VFM | 0.927
142 | WFM | 0.772
143 | YFM | 1.16
144 | DFM | 1.13

Row | Variant | enrichment factor
145 | AFM | 1.68
146 | EFN | 2.12
147 | FFN | 3.47
148 | GFN | 1.81
149 | HFN | 6.18
150 | IFN | 0.869
151 | KFN | 2.32
152 | LFN | 0.984
153 | MFN | 1.54
154 | NFN | 1.9
155 | PFN | 1.78
156 | CFN | 0.993
157 | QFN | 4.71
158 | RFN | 5.1
159 | SFN | 1.48
160 | TFN | 1.74
161 | VFN | 0.98
162 | WFN | 1.68
163 | YFN | 1.65
164 | DFN | 1.47
165 | AFN | 1.75
166 | EFP | 0.202
167 | FFP | 1.19
